The target of this test is T1, TSPAN8 Protein, Human, Recombinant (SinoBiological, 15683-H07H) (human, UniProt P19075 110-205).
T1 construct: domain: LEL; Bought; also called LEL protein of TSPAN8; LEL region peptide of TSPAN8
T1 sequence (looked up): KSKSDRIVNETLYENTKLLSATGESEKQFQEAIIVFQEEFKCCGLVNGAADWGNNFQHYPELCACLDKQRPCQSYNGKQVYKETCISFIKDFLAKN
The test is described as follows: ELISA, antigen coated at 1 µg/mL, detection with Goat Anti-Human Kappa-HRP, chemiluminescence. How it is done:
Specifically, 1 µg/mL of TSPAN8 Protein, Human, Recombinant (SinoBiological, 15683-H07H) or Human CellExp CD3 epsilon & CD3 delta Heterodimer, Human Recombinant (BioVision, P1183-10) diluted with PBS was added to a 384-Well White Plates, MaxiSorp (Nunc, 460372) at 30 µL/well. After standing still at 4° C. overnight, supernatant was removed, and Blocking One (Nacalai Tesque, 03953-95) was added thereto at 120 µL/well. After standing still at room temperature for 1 hour, supernatant was removed, and the resultant was washed with TBST buffer (Thermo Fisher Scientific, 28360) twice. The anti-TSPAN8(16B11)-anti-CD3 bispecific antibody diluted with TBST containing 10% Blocking One was added thereto at 30 µL/well, followed by standing still at room temperature for 1 hour. The resultant antibody solution was removed, washed with TBST buffer twice, Goat Anti-Human Kappa, Mouse ads-HRP (Southern Biotech, 2061-05) diluted by 5000 times with TBST containing 10% Blocking One was added thereto in an amount of 30 µL/well, and the resultant was stand still at room temperature for 30 minutes. […] A reaction was performed at room temperature for 15 minutes, and then chemiluminescence was measured with ARVO X3 (Perkin Elmer).
In general terms: An ELISA detects its analyte on a solid surface through an enzyme-linked reagent.

Here are results for 1 molecule from patent publication US20230348587A1 (Astellas, published 2023).

The term EC50 denotes the concentration needed to bring the measured effect to its halfway point.

Several values for one entry are separate records, joined by “and”; a condition that tells them apart may be missing. Equal entries are not always repeated.

B1: anti-TSPAN8(16B11)-anti-CD3 bispecific antibody (bispecific antibody, human IgG1, kappa, L234A L235A, N297G)
heavy: QVQLVESGGGVVQPGGSLRLSCAASGFTFSSYGMHWVRQAPGKGLEWVAVIWYDGRNKYYADSVKGRFTISRDNSKNTLYLQMNSLRAEDTAVYYCTRDHSGSGSYYIDYWGQGTLVTVSSASTKGPSVFPLAPSSKSTSGGTAALGCLVKDYFPEPVTVSWNSGALTSGVHTFPAVLQSSGLYSLSSVVTVPSSSLGTQTYICNVNHKPSNTKVDKKVEPKSCDKTHTCPPCPAPEAAGGPSVFLFPPKPKDTLMISRTPEVTCVVVDVSHEDPEVKFNWYVDGVEVHNAKTKPREEQYGSTYRVVSVLTVLHQDWLNGKEYKCKVSNKALPAPIEKTISKAKGQPREPQVYTLPPSRDELTKNQVSLSCAVKGFYPSDIAVEWESNGQPENNYKTTPPVLDSDGSFFLVSKLTVDKSRWQQGNVFSCSVMHEALHNHYTQKSLSLSPGK
light: EIAMTQSPATLSVSPGERATLSCRASQSVSSNLAWYQQKPGQAPRLLIYGASTRATGLPARFSGSGSGTEFTLTISSLQSEDFAVYYCQQYNNFWTFGQGTKVEIKRTVAAPSVFIFPPSDEQLKSGTASVVCLLNNFYPREAKVQWKVDNALQSGNSQESVTEQDSKDSTYSLSSTLTLSKADYEKHKVYACEVTHQGLSSPVTKSFNRGEC
scFv: EVQLVESGGGLIQPGGSLRLSCAASGFTFNTYAMNWVRQAPGKCLEWVARIRSKYNNYATYYADSVKDRFTISRDDSKSTLYLQMNNLRAEDTAVYYCVRHGNFGNSYVSWFAYWGQGTLVTVSSGKPGSGKPGSGKPGSGKPGSQAVVTQEPSLTVSPGGTVTLTCRSSTGAVTTSNYANWVQQKPGQAPRGLIGGTNKRAPGTPARFSGSLLGDKAALTLSGAQPEDEAEYYCALWYSNLWVFGCGTKVTVL[no letters for human IgG1 Fc with C220S L234A L235A N297G T366W (EU numbers)]
notes: LALA, N297G, T366W); also called anti-TSPAN8/anti-CD3 bispecific antibody; anti-TSPAN8-anti-CD3 bispecific antibody
As for B1, the concentration giving a half-maximal response (EC50) was 1 µg/mL and 8.1 nM.
